# From PubChem BioAssay AID894 (National Center for Advancing Translational Sciences (NCATS), 2007)
# About 6,500 (4.3%) of roughly 150,000 compounds were called active. The shares of active, inactive and inconclusive entries below differ from those in the screen. The call rests on the fitted dose curve; in most records, active means well fitted inhibition curve with a large enough effect (not every such curve was filed as active); inconclusive means small, poorly fitted or top-dose-only effect, or another doubt; inactive means no such curve, though single readings can be large or run the other way. Potencies of inconclusive entries are left out as doubtful fits.
# Target: 15-hydroxyprostaglandin dehydrogenase [NAD(+)] (Homo sapiens) (UniProt P15428)
# Assay: qHTS Assay for Inhibitors of HPGD (15-Hydroxyprostaglandin Dehydrogenase)
# Conditions: purified HPGD, NADH fluorescence kinetic, PGE2 substrate; activity change, negative = inhibition: hits give low values
# Method in brief: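 NADH formation kinetics: reaction with 30 uM PGE2 and 1 mM NAD+ (final), 20 nM enzyme, Tris-HCl pH 8 with Tween 20, after 15 min compound preincubation at room temperature. Fluorescence change, last versus first of five reads.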
# On the % scale 0 is the no-effect control and ±100 the full control effect; potency means the concentration at half of the fitted maximal effect; tags describe the fitted curve by direction and shape.
# UniProt P15428, sequence (P15428 whole entry, looked up): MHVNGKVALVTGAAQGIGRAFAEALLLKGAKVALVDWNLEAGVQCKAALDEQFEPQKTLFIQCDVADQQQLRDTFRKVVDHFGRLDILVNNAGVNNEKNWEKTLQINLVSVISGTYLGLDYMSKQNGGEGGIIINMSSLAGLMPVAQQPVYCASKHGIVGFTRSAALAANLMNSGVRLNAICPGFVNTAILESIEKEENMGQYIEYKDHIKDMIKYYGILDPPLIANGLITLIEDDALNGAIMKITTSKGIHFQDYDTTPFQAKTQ
Structure (SMILES),Potency,"activity change, negative = inhibition"
COC(=O)c1c(/N=C/N(C)C)sc2c1CCN(c1ncc(C(F)(F)F)cc1Cl)C2,"inconclusive [inhibitor, partial curve]",–
CC(=O)c1ccc2c(ccc3ccccc32)c1,"inconclusive [inhibitor, partial curve]",–
CCOc1ccc(NC(=S)NC(C)c2cccs2)cc1 (stereo unspecified),–,inactive: -16.9%
c1ccc2sc(SSc3nc4ccccc4s3)nc2c1,active: 10 µM,–
Cc1ccccc1-n1c(SCC(=O)c2cc(C)n(C)c2C)nnc1-c1cccnc1,active: 25.1 µM,–
COc1ccc(/C=N/Nc2nc(-c3cccc(S(=O)(=O)N4CCCC4)c3)cs2)c(OC)c1,"inconclusive [inhibitor, partial curve]",–
COc1ccc(/C=C/C(=O)c2ccoc2)cc1,"inconclusive [inhibitor, single point]",–
O=C(CCc1nc(-c2ccccc2F)no1)NCc1ccco1,"inconclusive [inhibitor, partial curve]",–
Cc1ccc(OCc2nnc(SCC(=O)O)n2N)cc1,–,inactive: -6.79%
O=C(NCc1cccnc1)c1cccn2c(=O)c3sccc3nc12,"inconclusive [inhibitor, single point]",–
CCOC(=O)COc1ccc(/C=C/[N+](=O)[O-])c(OCC(=O)OCC)c1,"inconclusive [inhibitor, full curve]",–
NS(=O)(=O)c1ccc(N2N=C(c3ccccc3)CC2c2ccccc2)cc1 (stereo unspecified),"inconclusive [inhibitor, partial curve]",–
Cc1cc(-c2nc3ncccc3o2)ccc1N,"inconclusive [inhibitor, full curve]",–
COc1ccc(/C=N/NC(=O)c2nc(-c3ccccc3)n(-c3ccccc3)n2)cc1OC,"inconclusive [inhibitor, partial curve]",–
CC(=O)Nc1cc2ccccc2oc1=O,"inconclusive [inhibitor, partial curve, poor fit]",–
CCN(CC)S(=O)(=O)c1ccc(O)c(NS(=O)(=O)c2ccccc2F)c1,active: 25.1 µM,–
CNC(=O)/C(C#N)=C/c1c(N(Cc2ccccc2)Cc2ccccc2)nc2ccccn2c1=O,–,inactive: -7.44%
COc1cc(/C=C(\NC(=O)c2ccccc2)C(=O)Nc2cccc(O)c2)c([N+](=O)[O-])cc1OC,–,inactive: -8.44%
Cc1ccc(Cn2cc(SCC(=O)Nc3nccs3)c3ccccc32)cc1,–,inactive: -18%
O=c1oc2c(CN3CCCCC3)c(O)ccc2cc1-c1nc2ccccc2[nH]1,"inconclusive [inhibitor, full curve]",–
COc1ccc(-n2c(SCC(=O)Nc3nccs3)nc3c(c2=O)SC(C)C3)cc1 (stereo unspecified),–,inactive: -7.67%
N=C(N)SCCc1ccc(OCc2ccc([N+](=O)[O-])cc2)cc1,–,inactive: -11.5%
N#Cc1c(Nc2ccc(F)cc2)sc(C(=O)c2ccccc2)c1N,"inconclusive [inhibitor, single point]",–

Structure (SMILES),Potency,"activity change, negative = inhibition"
c1ccc(OCCn2c(-c3ccco3)nc3ccccc32)cc1,"inconclusive [inhibitor, single point]",–
CCCCn1nnnc1SCC(=O)Nc1ccc(N(C)C)cc1,–,inactive: -7.89%
CC1=C(C(N)=O)C(c2cccnc2)n2nc(SCc3ccccc3Cl)nc2N1 (stereo unspecified),"inconclusive [inhibitor, partial curve, poor fit]",–
CCn1c(-c2csc3c2CCCC3)n[nH]c1=S,active: 25.1 µM,–
C=CCn1c(SCC(=O)NCCOC)nnc1-c1cc2c(s1)CCC(CC)C2 (stereo unspecified),active: 17.8 µM,–
COc1ccc(-c2ocnc2C(=O)Nc2ccccc2N2CCCCC2)cc1,"inconclusive [inhibitor, single point]",–
O=C(CCCCCN1C(=O)c2ccccc2C1=O)Nc1ccc(S(=O)(=O)N2CCCCC2)cc1,–,inactive: -8.25%
CC(C)c1ccc(-c2nc3c([nH]2)c(=O)n(C)c(=O)n3C)cc1,"inconclusive [inhibitor, partial curve]",–
c1ccc(Cc2nn3c(Cn4nnc5ccccc54)nnc3s2)cc1,active: 20 µM,–
COc1cc2c(cc1OC)C(c1ccccc1O)N(C1CC(=O)N(c3ccccc3)C1=O)CC2 (stereo unspecified),–,inactive: -13.2%
CCCC(C)c1nnc(NC(=O)C2CCCO2)s1 (stereo unspecified),active: 11.2 µM,–
NC1=NC(=O)/C(=C/c2cn(CCC(=O)O)nc2-c2ccc(F)cc2)S1,active: 25.1 µM,–
CCCN(CCC)C(=O)[C@@H](CCC(=O)O)NC(=O)c1ccccc1,–,inactive: -7.12%
CC(C)NC(=O)c1cc(-c2ccco2)nn1-c1ccc(Cl)cc1,"inconclusive [inhibitor, partial curve]",–
CCOc1ccc(NC(=O)CSc2nnc(-c3ccco3)n2C)cc1,–,inactive: -17.7%
CCOc1cc(/C=C2/NC(=O)N(CC(=O)Nc3cccc(C)c3)C2=O)ccc1OC,"inconclusive [inhibitor, partial curve]",–
COc1ccc(NC(=O)c2nnn(Cc3ccc(SC)cc3)c2N)c(OC)c1,"inconclusive [inhibitor, partial curve]",–
Cc1nn(-c2ccccc2)c(N2CCCC2)c1/C=N/NC(=S)Nc1ccccc1C(F)(F)F,"inconclusive [inhibitor, single point]",–
NC(=O)c1ccccc1NS(=O)(=O)c1cccs1,–,inactive: -3.52%
COc1ccc(-c2nn(-c3ccccc3)cc2C(=O)Nc2nc(CC(C)=O)ns2)cc1,"inconclusive [inhibitor, partial curve]",–
CSc1nc2sc3c(c2c(=O)[nH]1)CCC3,"inconclusive [inhibitor, partial curve]",–
FC(F)(F)c1ccc(N2CCOCC2)c(Nc2nc3ccccc3n3cnnc23)c1,"inconclusive [inhibitor, partial curve]",–
Cc1ccc(-n2c(=O)c(C#N)cc3c(=O)n4ccccc4nc32)cc1C,"inconclusive [inhibitor, partial curve]",–
